Data published in article PMC6919601, “Identification of Plasmodium dipeptidyl aminopeptidase allosteric inhibitors by high throughput screening” (PLoS ONE, 2019).
Out of some 110,000 compounds screened, about 230 (0.21%) showed an effect of 50% or more. This is one part of the list.

The compounds below were run against DPAP1 (Plasmodium falciparum, UniProt Q8IIJ9) (assay: primary screen, percent inhibition; read by cleavage of a fluorogenic dipeptide substrate; higher = more effect of the substance).
Chain of DPAP1 (Q8IIJ9 whole entry, looked up): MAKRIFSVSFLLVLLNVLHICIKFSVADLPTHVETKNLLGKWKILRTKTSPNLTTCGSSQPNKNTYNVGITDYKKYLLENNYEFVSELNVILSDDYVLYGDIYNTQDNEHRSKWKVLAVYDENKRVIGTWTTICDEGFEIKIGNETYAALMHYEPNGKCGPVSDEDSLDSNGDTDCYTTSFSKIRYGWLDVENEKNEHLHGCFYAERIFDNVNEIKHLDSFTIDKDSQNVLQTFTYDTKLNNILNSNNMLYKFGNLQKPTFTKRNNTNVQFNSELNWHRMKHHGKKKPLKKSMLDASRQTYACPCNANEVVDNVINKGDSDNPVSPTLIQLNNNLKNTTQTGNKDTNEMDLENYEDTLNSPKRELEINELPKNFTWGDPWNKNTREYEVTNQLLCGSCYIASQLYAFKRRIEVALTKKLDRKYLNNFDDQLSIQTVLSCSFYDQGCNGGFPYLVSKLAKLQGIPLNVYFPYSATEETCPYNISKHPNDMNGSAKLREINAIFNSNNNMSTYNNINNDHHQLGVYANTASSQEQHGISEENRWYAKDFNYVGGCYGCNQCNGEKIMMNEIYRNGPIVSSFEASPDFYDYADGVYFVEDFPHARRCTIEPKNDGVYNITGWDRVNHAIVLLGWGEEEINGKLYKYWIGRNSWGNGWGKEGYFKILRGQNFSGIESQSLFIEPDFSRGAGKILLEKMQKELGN
Design: species or system P. falciparum D10 trophozoite lysates; single well
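Note: 30 min substrate incubation versus DMSO and 10 µM JCP410 controls.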

SMILES	% Inhibition @ 10 uM [%]
CCOc1ccc(NC(=O)CNS(=O)(=O)c2ccc(OC)cc2)cc1	9.79
Cc1ccccc1C1CC(=O)NC(SCC(=O)Nc2ccc(Br)cc2)=C1C#N (stereo not shown)	0.777
CCOC(=O)c1cccc(CNC(=O)[C@H](CCSC)N2Cc3ccccc3C2=O)c1	-2.25
COc1ccc(NC(=O)c2cccc(NC(=O)c3ccc(Br)o3)c2)cc1	-3.33
CCOC(=O)c1sc(Cl)nc1C	4.01
CCOc1cccc2cc(-c3nc(-c4ccccc4F)no3)c(=O)oc12	-2.26
COC(=O)c1cn(-c2ccccc2)nc1N	4.61
CC1CCCC(C)N1C(=O)CSCc1cnn(-c2ccccc2)c1-n1cccc1 (stereo not shown)	0.623
COc1ccc(-c2csc3ncnc(O)c23)cc1	2.08
Cc1nc(O)c2c(n1)OC(N)=C(C#N)C2c1ccc(Cl)c(Cl)c1 (stereo not shown)	-4.01
COCC(C)NCc1ccc(OC)c(Br)c1 (stereo not shown)	5
Cc1ccc(OCC(=O)Nc2cccc(C(=O)O)c2)cc1	-5.85
CCC(C)NS(=O)(=O)c1ccccc1[N+](=O)[O-] (stereo not shown)	-0.999
O=C(CSc1nnc(CNC(=O)c2cccs2)o1)NCCc1ccccc1	-3.39
Cc1cc(S(=O)(=O)n2nc(-c3ccccc3)cc2N)ccc1F	-0.495
COc1ccc(CCNC(=O)C2CCCN(S(=O)(=O)N3CCCCCC3)C2)cc1OC (stereo not shown)	-2.26
COc1cccc(NC(=O)CN(Cc2ccc(Cl)c(Cl)c2)S(=O)(=O)c2ccccc2)c1	1.29
CCOC(=O)c1cnc(-c2ccccc2)nc1C1CCNCC1	4.01
O=C(NC(=O)c1ccccc1F)OCCN1CCN(c2ncc(C(F)(F)F)cc2Cl)CC1	-4.49
COc1ccc(-c2nc(NCCc3c[nH]c4ccc(OC)cc34)sc2C)cc1	-6.71
COc1cc(C(=O)OC(c2ccc3c(c2)OCO3)c2nccc3ccccc23)cc(OC)c1OC (stereo not shown)	0.131
CCCNC(=O)NCc1nc(-c2ccc(C)cc2)no1	0.00706
CCS(=O)(=O)C1=NSC2=NC(=O)/C(=C\c3ccc(OCc4ccccc4)cc3)C(=N)N21	0.163
COc1cc2oc3ccccc3c2cc1NC(=O)COc1ccc(C)cc1	-1.65
COc1cc(CN2CCN(C/C=C/c3ccccc3)CC2)cc(OC)c1	-3.15
CCC(C(=O)Nc1cc(C)on1)c1ccccc1 (stereo not shown)	-3.41
CCOC(=O)C(C#N)c1ncccn1 (stereo not shown)	2.65
O=C(NC1CCN(Cc2ccccc2)CC1)c1cc2c(s1)-c1ccccc1S(=O)(=O)C2	0.953
